Data taken from the BET-seq Pho4 binding data (Le et al. 2018).
Some of the results follow. Values were computed here from the reads of four pooled replicates and scatter widely.

What follows are sequences tested against T1, Pho4 (S. cerevisiae) (UniProt P07270) (assay: relative binding free energy (BET-seq); higher = weaker binding). Details: reference: library average.
T1 sequence: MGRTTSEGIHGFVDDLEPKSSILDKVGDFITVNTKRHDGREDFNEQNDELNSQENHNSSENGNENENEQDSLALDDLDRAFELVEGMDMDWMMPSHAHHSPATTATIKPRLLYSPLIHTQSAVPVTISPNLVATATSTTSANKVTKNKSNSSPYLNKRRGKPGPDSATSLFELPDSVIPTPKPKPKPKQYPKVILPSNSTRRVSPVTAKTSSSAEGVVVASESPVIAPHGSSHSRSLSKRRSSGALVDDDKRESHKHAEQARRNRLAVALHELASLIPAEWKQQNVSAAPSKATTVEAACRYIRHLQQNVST

Sequence | relative binding free energy
GGGAGCACGTGACGGA | -0.01 kcal/mol
TTTTCCACGTGTTGCT | -0.04 kcal/mol
TGAGTCACGTGGGCTT | -0.04 kcal/mol
GCCGGCACGTGTGGTA | 0.04 kcal/mol
GGCTGCACGTGGTAGA | -0.06 kcal/mol
TGAGTCACGTGCGATG | 0.15 kcal/mol
TTGTTCACGTGTTCCT | 0.23 kcal/mol
TTGTACACGTGATATG | 0.15 kcal/mol
GACTGCACGTGATGGT | 0.13 kcal/mol
AAATGCACGTGTGTGA | 0.01 kcal/mol
GATGTCACGTGGTTTA | 0.15 kcal/mol
CCTTTCACGTGGTTTG | 0.29 kcal/mol
TATGACACGTGCTGTA | 0 kcal/mol
TTGTTCACGTGGGTCG | 0.1 kcal/mol
AGTGCCACGTGTTTGG | -0.18 kcal/mol
GACTTCACGTGGTAAG | 0.5 kcal/mol
CTTGCCACGTGTTGTG | -0.2 kcal/mol
GGTTACACGTGGGATC | 0.01 kcal/mol
GTGAACACGTGCAGGT | 0.08 kcal/mol
GCGGTCACGTGTCAGG | 0.06 kcal/mol
CGGCTCACGTGAGGCG | 0.42 kcal/mol
ATCAGCACGTGTTTTA | -0.09 kcal/mol
TATGGCACGTGACGAG | 0.13 kcal/mol
GCTGACACGTGTGGGA | 0.18 kcal/mol
TGATACACGTGAGTGG | 0.33 kcal/mol
CGAGTCACGTGCTTTG | 0.24 kcal/mol

Sequence | relative binding free energy
TCGGTCACGTGATGTA | 0.24 kcal/mol
GAGTTCACGTGATTCG | 0.44 kcal/mol
TTAGGCACGTGAAGTA | 0.21 kcal/mol
CGGGGCACGTGGCTTA | -0.18 kcal/mol
GTGTCCACGTGGGGTT | -0.09 kcal/mol
CTTAACACGTGGGGTG | -0.33 kcal/mol
GTTAACACGTGGAGTG | -0.11 kcal/mol
TGCGTCACGTGACTGG | 0.17 kcal/mol
ATAGACACGTGTTGGA | -0.06 kcal/mol
GGTCGCACGTGGGGAA | -0.02 kcal/mol
GAGATCACGTGGGATT | 0.23 kcal/mol
TGGTACACGTGGATTT | 0.12 kcal/mol
ACAGTCACGTGTGGGT | -0.07 kcal/mol
TGTGTCACGTGTTGCA | 0.04 kcal/mol
TTGGTCACGTGTCTTA | 0.03 kcal/mol
GTCAGCACGTGGTGCG | -0.07 kcal/mol
AGTCTCACGTGGGGCG | 0 kcal/mol
TTGCGCACGTGGTAAA | -0.17 kcal/mol
ACGCGCACGTGGAGGG | -0.23 kcal/mol
TAGGTCACGTGGAGCA | 0.06 kcal/mol
AAGCGCACGTGGCGGG | -0.32 kcal/mol
TTGTGCACGTGTCTCG | 0.01 kcal/mol
TGTCGCACGTGGTTGT | -0.11 kcal/mol
CTAAGCACGTGTTTTG | -0.19 kcal/mol
TTATGCACGTGAAAAT | 0.37 kcal/mol
ATGGTCACGTGCTTTT | 0.18 kcal/mol

Sequence | relative binding free energy
AGGTTCACGTGCAGGA | 0.13 kcal/mol
GCTGGCACGTGGTGAT | -0.09 kcal/mol
GTAATCACGTGGGCGT | 0.04 kcal/mol
TGGGGCACGTGAGCCG | 0.14 kcal/mol
ATTATCACGTGGATTA | 0.16 kcal/mol
ATTGTCACGTGAAAGT | 0.21 kcal/mol
TTATGCACGTGACGTT | -0.11 kcal/mol
GTGCTCACGTGTGAGT | 0.27 kcal/mol
TAGCTCACGTGAGGGT | 0.29 kcal/mol
TAGGCCACGTGGGGGA | -0.22 kcal/mol
CTGGGCACGTGGTCAG | -0.26 kcal/mol
GATAACACGTGGGATG | -0.07 kcal/mol
TGGATCACGTGAAGCT | 0.3 kcal/mol
GTGGGCACGTGATTTT | 0.06 kcal/mol
TGGTACACGTGTGCGA | 0.08 kcal/mol
TCAGACACGTGAGGGG | 0.13 kcal/mol
TGTAGCACGTGTGATA | 0.03 kcal/mol
TCGTTCACGTGGTTAT | 0.33 kcal/mol
CTGTCCACGTGGGGGA | -0.18 kcal/mol
ACAGACACGTGTAGGG | 0.13 kcal/mol
GTCGGCACGTGCGCGG | -0.05 kcal/mol
GTGGTCACGTGGTCTG | 0.16 kcal/mol
AATGGCACGTGGGCAT | -0.14 kcal/mol
AGCAACACGTGGGGTA | -0.11 kcal/mol
TTAGGCACGTGGTTTT | -0.04 kcal/mol
CAGGTCACGTGGATGT | 0.03 kcal/mol

Sequence | relative binding free energy
GGTTACACGTGCTATG | 0.16 kcal/mol
TTTTACACGTGCGTAG | 0.13 kcal/mol
TTTTTCACGTGAGTAT | 0.36 kcal/mol
TAGTACACGTGGAATG | 0.04 kcal/mol
AAGCGCACGTGTATGT | -0.04 kcal/mol
AGCTTCACGTGGTATG | 0.13 kcal/mol
TGTCTCACGTGCTTTT | 0.06 kcal/mol
GTCGGCACGTGAATGG | 0.15 kcal/mol
CGTCCCACGTGGGGGG | -0.38 kcal/mol
TTGTCCACGTGGTATG | -0.01 kcal/mol
AATTACACGTGGGAGG | 0.06 kcal/mol
GTGTGCACGTGGACTT | 0 kcal/mol
TTTGTCACGTGTGGTA | 0.07 kcal/mol
TGTAGCACGTGGATCG | 0.07 kcal/mol
GGTTGCACGTGATAGA | 0.15 kcal/mol
GTATGCACGTGGTACT | -0.02 kcal/mol
AAATTCACGTGGGTGC | 0.2 kcal/mol
GATTCCACGTGAGTGG | 0.31 kcal/mol
GTTCGCACGTGGCTAG | -0.02 kcal/mol
TTGGTCACGTGTCTGT | 0.12 kcal/mol
TTTTACACGTGTGGTC | 0.21 kcal/mol
TAGGTCACGTGGGTCA | -0.02 kcal/mol
AGGCACACGTGCGGTG | 0 kcal/mol
ATCGTCACGTGTTAGA | 0 kcal/mol
TTATTCACGTGTCGAT | 0.31 kcal/mol
ATGGGCACGTGTAGGT | -0.17 kcal/mol

Sequence | relative binding free energy
TGCATCACGTGGCTGG | 0.05 kcal/mol
TCGGACACGTGATTTT | 0.17 kcal/mol
TCGTGCACGTGTGCTT | -0.1 kcal/mol
ATAGTCACGTGCTGGG | 0.01 kcal/mol
GGGGTCACGTGATTGA | 0.25 kcal/mol
TCAATCACGTGGGTTA | 0.05 kcal/mol
TAATTCACGTGTCGGG | 0.32 kcal/mol
TAACGCACGTGAGGTT | 0.22 kcal/mol
GGCTGCACGTGTTGGC | -0.03 kcal/mol
TGGGGCACGTGGCCAT | -0.14 kcal/mol
ATATGCACGTGTGCTT | 0.07 kcal/mol
CGATACACGTGGTATG | 0.01 kcal/mol
TGTGCCACGTGGTAAG | 0.01 kcal/mol
ATGGGCACGTGACATG | -0.03 kcal/mol
TTTGTCACGTGCGCGA | -0.12 kcal/mol
AATAGCACGTGTGGGA | -0.03 kcal/mol
TTCGTCACGTGATTGT | 0.2 kcal/mol
TAGGACACGTGTATGG | 0.14 kcal/mol
TATAACACGTGAATGG | 0.13 kcal/mol
GTAGTCACGTGATATT | 0.18 kcal/mol
GTGGTCACGTGCAATT | 0.09 kcal/mol
TGTGTCACGTGGGCTA | -0.01 kcal/mol
CGTATCACGTGGTATG | 0.13 kcal/mol
TGGCTCACGTGAAAGG | 0.45 kcal/mol
TGTAACACGTGGGTGA | -0.11 kcal/mol
AGATGCACGTGGTGCT | -0.16 kcal/mol

Sequence | relative binding free energy
TTGATCACGTGTTGAC | 0.12 kcal/mol
GGCATCACGTGTAGAG | 0.22 kcal/mol
GGGGACACGTGCGTCG | 0.04 kcal/mol
CAAATCACGTGGTTTT | 0.19 kcal/mol
CCGTTCACGTGTGTGT | 0.14 kcal/mol
GATTCCACGTGTGTTG | 0.05 kcal/mol
ATTTACACGTGGGGAT | 0.11 kcal/mol
CGGGGCACGTGCTAGG | -0.2 kcal/mol
TTGTTCACGTGTGTGC | 0.35 kcal/mol
TTTGGCACGTGTTATC | 0.01 kcal/mol
ATGAACACGTGGTGTT | -0.04 kcal/mol
CTGGTCACGTGATTGA | 0.21 kcal/mol
GGTGTCACGTGGAGCA | 0.04 kcal/mol
CGGGTCACGTGGTCGG | 0.09 kcal/mol
TTGGACACGTGGAATT | 0.26 kcal/mol
GTTGGCACGTGATTGT | 0.05 kcal/mol
GACGGCACGTGGTCGG | -0.13 kcal/mol
GCTGGCACGTGGGCGG | -0.2 kcal/mol
ACTGGCACGTGCGGGT | -0.18 kcal/mol
GTCTTCACGTGCGGGG | 0.29 kcal/mol
GTGGTCACGTGCTAAT | 0.14 kcal/mol
AGATTCACGTGGGATA | 0.33 kcal/mol
GAGTTCACGTGAAGGA | 0.51 kcal/mol
GGCGGCACGTGAAGGA | 0.15 kcal/mol
GTGTGCACGTGATCTG | 0 kcal/mol
GGGACCACGTGGAGTG | -0.05 kcal/mol

Sequence | relative binding free energy
TTGTACACGTGCGATG | 0.06 kcal/mol
TGGGGCACGTGCGTTA | -0.31 kcal/mol
ATGTTCACGTGGTGCG | 0.19 kcal/mol
GGTTTCACGTGATGAC | 0.5 kcal/mol
TGATGCACGTGGGGAA | -0.1 kcal/mol
CGTGACACGTGCTGGG | -0.09 kcal/mol
ATGTTCACGTGCGATA | 0.27 kcal/mol
AGAGGCACGTGAGAGG | -0.01 kcal/mol
AGGTACACGTGGTGCT | 0 kcal/mol
AGATCCACGTGTGAGG | 0.29 kcal/mol
CTGCTCACGTGGGGGG | 0.03 kcal/mol
TAATTCACGTGTAGGC | 0.24 kcal/mol
AAGTTCACGTGAGGGA | 0.42 kcal/mol
TGTCGCACGTGATTTG | 0.19 kcal/mol
GAGTACACGTGGATTA | 0.27 kcal/mol
GAATGCACGTGACGGT | 0.28 kcal/mol
TAAGGCACGTGAAGAG | 0.12 kcal/mol
CTGGGCACGTGGTGGA | -0.22 kcal/mol
GCGTGCACGTGTGCTT | -0.03 kcal/mol
CTTTTCACGTGTTTGG | 0.29 kcal/mol
TCTGGCACGTGCGTTT | -0.19 kcal/mol
AAGTGCACGTGTGACG | -0.04 kcal/mol
TATGACACGTGTGTCG | 0.02 kcal/mol
TGTGTCACGTGAAAAT | 0.25 kcal/mol
TAAGCCACGTGGAGGT | -0.06 kcal/mol
GAAATCACGTGGTGTG | 0.08 kcal/mol

Sequence | relative binding free energy
ATGGTCACGTGGTAGA | -0.02 kcal/mol
TAACGCACGTGGGTGA | -0.18 kcal/mol
AGTCGCACGTGGAGTA | -0.08 kcal/mol
TTAGACACGTGTTTTA | 0.11 kcal/mol
GTTTTCACGTGGTTCC | 0.3 kcal/mol
AATGGCACGTGAGATA | 0.23 kcal/mol
TTTTGCACGTGATGCC | 0.17 kcal/mol
GTTAGCACGTGTTGCG | 0.01 kcal/mol
CTGGTCACGTGTCAAG | 0.34 kcal/mol
GGTTTCACGTGCTGCG | 0.31 kcal/mol
TTTAGCACGTGTGGGC | -0.03 kcal/mol
TCGGGCACGTGTTGAG | -0.23 kcal/mol
AGGTGCACGTGTAAAG | 0.02 kcal/mol
AGGGTCACGTGTCAGT | -0.03 kcal/mol
GCGGGCACGTGGTGTT | -0.07 kcal/mol
GGGGTCACGTGCCGGA | 0.02 kcal/mol
TGGCGCACGTGAAATT | 0.33 kcal/mol
TGGGGCACGTGCCGGG | -0.18 kcal/mol
TCTCGCACGTGATTTG | 0.14 kcal/mol
CTGTGCACGTGGTATT | -0.2 kcal/mol
GTGTTCACGTGTTGTA | 0.17 kcal/mol
GCTTTCACGTGGCTTT | 0.34 kcal/mol
GGGTCCACGTGTGTTC | 0.17 kcal/mol
GTGGACACGTGGTATC | 0.05 kcal/mol
ATGGTCACGTGTGTGT | 0.12 kcal/mol
AGAGTCACGTGAGTTA | 0.31 kcal/mol

Sequence | relative binding free energy
AAGCGCACGTGATTGT | 0.16 kcal/mol
TGGGTCACGTGTCTCT | 0.28 kcal/mol
TTGAGCACGTGCGTGC | -0.23 kcal/mol
AGGGTCACGTGGAAAT | 0.18 kcal/mol
ATCATCACGTGATGTT | 0.11 kcal/mol
ATTAACACGTGTGTAA | -0.16 kcal/mol
TCGTACACGTGAGTTT | 0.28 kcal/mol
TTCTGCACGTGAGGCG | 0.15 kcal/mol
GAGGTCACGTGAGAAG | 0.36 kcal/mol
TGACTCACGTGTTGGA | 0.23 kcal/mol
AGCTTCACGTGGTTAA | 0.24 kcal/mol
GACGGCACGTGGTTAG | -0.05 kcal/mol
AAAGACACGTGGTATT | -0.02 kcal/mol
TGTTGCACGTGTAGTT | 0.09 kcal/mol
GGTAACACGTGGCATT | 0.05 kcal/mol
GATAGCACGTGGTTCA | -0.08 kcal/mol
CTTGACACGTGTGGTA | 0.1 kcal/mol
ATCTTCACGTGTGGCG | 0.37 kcal/mol
TGGTGCACGTGTATAC | 0.01 kcal/mol
CTGGGCACGTGACGGG | -0.13 kcal/mol
GCTTTCACGTGTTAAT | 0.23 kcal/mol
TTTCTCACGTGATTGA | 0.24 kcal/mol
